Source: the supplement of paper PMC4604168 (melanoma cell lines)
Some of the results follow. Many values rest on one well or one pass, so single values are uncertain.

Tests used:
Test in all cases: cell count relative to DMSO control; melanoma cells; higher = more viable cells
Conditions in all cases: library dose: standard library concentration; 72 h
[1] = test system: SkMel28
[2] = test system: SkMel2
[3] = test system: SkMel30
[4] = test system: SkMel5
[5] = test system: UACC257
[6] = test system: UACC62
[7] = test system: WM115
[8] = test system: WM1716
[9] = test system: WM1745
[10] = test system: WM3526
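Also: cells treated in 1,536-well plates, then fixed and DAPI-stained, with nuclei counted from automated high-throughput microscope images.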

| SMILES | cell count [1] [%] | cell count [2] [%] | cell count [3] [%] | cell count [4] [%] | cell count [5] [%] | cell count [6] [%] | cell count [7] [%] | cell count [8] [%] | cell count [9] [%] | cell count [10] [%] |
| --- | --- | --- | --- | --- | --- | --- | --- | --- | --- | --- |
| NC(=O)c1ccc(N(C(N)=O)c2c(F)cccc2F)nc1-c1ccc(F)cc1F + CO[C@@H]1[C@H](N(C)C(=O)c2ccccc2)C[C@H]2O[C@]1(C)n1c3ccccc3c3c4c(c5c6ccccc6n2c5c31)C(=O)NC4 [Midostaurin] (first compound 2 µM, partner dose 0.4 µM) | 58.6 | 60.7 | 70.1 | 48.3 | 78.8 | 85.8 | 54.2 | 38.7 | 54.3 | 81.8 |
| COc1cc2c(Oc3ccc4[nH]c(C)cc4c3F)ncnc2cc1OCCCN1CCCC1 [cediranib] + COc1cc(N2CCC(N3CCN(C)CC3)CC2)ccc1Nc1ncc(Cl)c(Nc2ccccc2S(=O)(=O)C(C)C)n1 [NVP-TAE684] (first compound 2 µM, partner dose 0.4 µM) | 76.7 | 63.2 | 93.7 | 55 | 79.9 | 84.4 | 57.7 | 73 | 40.1 | 67.1 |
| CCc1ccc(CCOc2ccc(CC3SC(=O)NC3=O)cc2)nc1 (stereo not given) [pioglitazone] + COc1cc2ncnc(Nc3ccc(Oc4ccccc4)cc3)c2cc1OC [SrcI1] (first compound 10 µM, partner dose 10 µM) | 71.2 | 80.3 | 98.6 | 84 | 73.9 | 83.2 | 88.3 | 80.5 | 65.9 | 65.4 |
| CCCCCCCCc1ccc(CCC(N)(CO)CO)cc1 [fingolimod] + C[C@]1(c2nc3c(C(N)=O)cccc3[nH]2)CCCN1 [Veliparib] (first compound 10 µM, partner dose 7 µM) | 5.69 | 0.361 | 15.3 | 74.8 | 79.7 | 18.1 | 13.6 | 59.3 | 21 | 63.8 |
| CCc1ccc(CCOc2ccc(CC3SC(=O)NC3=O)cc2)nc1 (stereo not given) [pioglitazone] + c1cc(-c2cnn3cc(-c4ccc(OCCN5CCCCC5)cc4)cnc23)ccn1 [Dorsomorphin] (first compound 10 µM, partner dose 2 µM) | 71 | 75.3 | 83.8 | 76.6 | 82 | 79.1 | 77.2 | 85.9 | 53.1 | 79.8 |
| NC(=O)c1ccc(N(C(N)=O)c2c(F)cccc2F)nc1-c1ccc(F)cc1F + C[C@@H]1CCN(C(=O)CC#N)C[C@@H]1N(C)c1ncnc2[nH]ccc12 [CP690550] (first compound 2 µM, partner dose 5 µM) | 99.6 | 110 | 103 | 106 | 90.8 | 81.1 | 92.2 | 117 | 140 | 93.5 |
| CCCCCCCCc1ccc(CCC(N)(CO)CO)cc1 [fingolimod] + C=C(c1ccc(C(=O)O)cc1)c1cc2c(cc1C)C(C)(C)CCC2(C)C [Bexarotene] (first compound 10 µM, partner dose 10 µM) | 1.52 | 0.114 | 10.5 | 51.9 | 72.1 | 12.3 | 16.2 | 9.1 | 3.65 | 24.6 |
| COc1cc2c(Oc3ccc4[nH]c(C)cc4c3F)ncnc2cc1OCCCN1CCCC1 [cediranib] + COc1cc2ncnc(Nc3ccc(Oc4ccccc4)cc3)c2cc1OC [SrcI1] (first compound 2 µM, partner dose 10 µM) | 66.5 | 69.9 | 70.9 | 63.4 | 94 | 62.3 | 61.4 | 67.6 | 45.8 | 56 |
| NC(=O)c1ccc(N(C(N)=O)c2c(F)cccc2F)nc1-c1ccc(F)cc1F + CS(=O)(=O)c1ccc(C(=O)Nc2ccc(Cl)c(-c3ccccn3)c2)c(Cl)c1 [vismodegib] (first compound 2 µM, partner dose 5 µM) | 164 | 107 | 130 | 111 | 104 | 68.8 | 133 | 133 | 87.4 | 123 |
| NC(=O)c1ccc(N(C(N)=O)c2c(F)cccc2F)nc1-c1ccc(F)cc1F + O=C(O)[C@@H]1[O][Sb](=[O])([O][Sb]2(=[O])[O][C@H]([C@H](O)CO)[C@H](O)[C@H](C(=O)O)[O]2)[O][C@H]([C@H](O)CO)[C@@H]1O [stibogluconate] (first compound 2 µM, partner dose 10 µM) | 106 | 94.2 | 122 | 93.2 | 124 | 79.6 | 102 | 105 | 91.5 | 93.2 |
| COc1cc2c(Oc3ccc4[nH]c(C)cc4c3F)ncnc2cc1OCCCN1CCCC1 [cediranib] + CCCCCCCCCCCC1=C(O)C(=O)C=C(O)C1=O [Embelin] (first compound 2 µM, partner dose 6 µM) | 91.2 | 93.1 | 118 | 111 | 88.2 | 89 | 117 | 97.8 | 64.4 | 86.6 |
